Data as given in a compilation of properties of binary mixtures (doi:10.1007/s10973-015-5205-9).
Some of these densities may be calculated back from excess volumes.

Assay: xn = mol fraction of the nth substance listed
Settings: 100 kPa

CC[n+]1ccn(C)c1.F[B-](F)(F)F + CCOCCO
x2 = 0
Settings | mass density [kg/m3]
298.15 K | 1277.6
318.15 K | 1262.1
328.15 K | 1254.6

CCOCCO + CC[n+]1ccn(C)c1.F[B-](F)(F)F
mass density [kg/m3]
Settings | 298.15 K | 308.15 K | 318.15 K | 328.15 K
x1 = 0.0466 | 1267.2 | 1259.5 | 1251.7 | 1244.4
x1 = 0.0981 | 1255.7 | 1248 | 1240.1 | 1232.9
x1 = 0.1487 | – | 1236.4 | 1228.5 | 1221.4
x1 = 0.1973 | 1232.8 | 1225.1 | – | 1210
x1 = 0.3049 | 1206.4 | 1198.6 | – | 1183.2
x1 = 0.4112 | 1177.6 | 1169.7 | 1161.7 | 1154
x1 = 0.4953 | 1152.4 | – | 1136.3 | 1128.2
x1 = 0.5705 | 1127.5 | 1119.4 | 1111.2 | –
x1 = 0.696 | 1080.2 | 1071.9 | 1063.5 | 1055
x1 = 0.7952 | 1036.7 | 1028.2 | – | 1011.3
x1 = 0.8411 | 1014.6 | 1006 | 997.3 | –
x1 = 0.8698 | 1000 | – | 982.6 | 974.5
x1 = 0.9487 | 957 | 948.1 | 939.1 | 931.6
x1 = 1 | 925.6 | 916.5 | 907.3 | 898.4
